Experimental data: article PMC4942575
Results are given in words; binding and its absence hold for the method and conditions named. For some of these results: Binding seen in cells or lysates may run through a third protein. Some results given as binding are weak or reduced against the parent protein; the word gives no strength. For some of these results: Tags and fused reporters may be left off the sequences shown.

The chains behind the UniProt entries cited, without tags or fusion partners. Where a name states a change or a piece, a line headed by the entry shows the natural chain unless it says otherwise. A line that says so, or that is headed by a name, gives the form on record, which may keep a tag or linker. Residues count along the entry.
UniProt A0MES8: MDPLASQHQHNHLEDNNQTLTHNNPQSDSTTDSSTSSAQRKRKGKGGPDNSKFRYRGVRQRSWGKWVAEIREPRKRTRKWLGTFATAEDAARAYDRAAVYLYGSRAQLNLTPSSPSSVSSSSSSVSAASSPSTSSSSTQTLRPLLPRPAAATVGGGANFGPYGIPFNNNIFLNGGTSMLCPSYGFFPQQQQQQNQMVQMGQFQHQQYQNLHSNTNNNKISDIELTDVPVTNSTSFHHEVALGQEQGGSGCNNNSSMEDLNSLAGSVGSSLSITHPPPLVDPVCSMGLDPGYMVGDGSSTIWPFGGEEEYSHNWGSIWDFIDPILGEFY
ABI4 (amino acids 1–160) fused with the GAL4 DNA-binding domain (BD): residues 1-160 of A0MES8
UniProt Q39026: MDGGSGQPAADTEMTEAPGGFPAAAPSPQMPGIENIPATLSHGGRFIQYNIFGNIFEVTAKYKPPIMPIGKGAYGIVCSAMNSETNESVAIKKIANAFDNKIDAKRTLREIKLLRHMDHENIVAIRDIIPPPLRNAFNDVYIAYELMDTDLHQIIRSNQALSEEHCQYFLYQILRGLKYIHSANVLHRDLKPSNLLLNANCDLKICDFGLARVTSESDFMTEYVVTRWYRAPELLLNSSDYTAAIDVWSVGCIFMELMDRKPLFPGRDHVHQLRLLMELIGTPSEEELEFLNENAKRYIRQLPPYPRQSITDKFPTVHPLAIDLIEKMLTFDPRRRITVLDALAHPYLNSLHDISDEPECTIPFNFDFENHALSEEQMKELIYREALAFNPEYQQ

Tests used:
[1] = target: ABI4 (amino acids 1–160) fused with the GAL4 DNA-binding domain (BD) (Arabidopsis) (UniProt A0MES8); experiment: two-hybrid; ABI4 (1-160)-BD and 20 MAPKs-AD co-transformed into Y2H Gold; grown on SD-Leu-Trp, α-galactosidase assay
[2] = target: T1, 14-3-3ω in pGBK (two-hybrid bait) (Arabidopsis) (UniProt Q01525); experiment: two-hybrid; 14-3-3ω or 14-3-3Φ in pGBK and MAPK pathway components in pGAD co-transformed into Y2H Gold; SD-Leu-Trp-His with 40 μg ml^-1 X-α-gal
T1 sequence: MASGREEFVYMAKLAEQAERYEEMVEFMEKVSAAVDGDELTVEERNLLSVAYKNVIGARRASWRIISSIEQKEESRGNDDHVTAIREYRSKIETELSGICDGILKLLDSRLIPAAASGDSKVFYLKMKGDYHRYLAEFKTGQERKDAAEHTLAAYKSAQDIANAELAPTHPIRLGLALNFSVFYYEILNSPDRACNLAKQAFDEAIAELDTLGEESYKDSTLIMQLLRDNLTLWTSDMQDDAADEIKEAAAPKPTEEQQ

ABI4-CLuc (Arabidopsis) = ABI4-CLuc (Arabidopsis) (UniProt A0MES8); experiment: split reporter; luciferase complementation imaging: ABI4-CLuc and MPK3/MPK6-NLuc co-infiltrated into N. benthamiana leaves
[3] = target: T2, 14-3-3ω-nYFP (Arabidopsis) (UniProt Q01525); experiment: split reporter; BiFC: 14-3-3ω-nYFP and cYFP fusions co-transformed into Arabidopsis protoplasts; confocal microscopy 12-18 h after transformation
T2 sequence: T1 sequence

“MPK6 fused with the GAL4 activation domain (AD) (from UniProt Q39026 1-395) (enzyme)” was tested, and the binding [1] was “binds” and the binding [2] was “binds”.

With “MPK6-NLuc (from UniProt Q39026 1-395) (enzyme)” the binding (ABI4-CLuc (Arabidopsis)) was “binds”.

In the case of “MPK6-cYFP (from UniProt Q39026 1-395) (enzyme)”, the binding [3] is reported as “binds”.
